Laboratory results published in the supplement of paper PMC4466236.
Over roughly 33,000 sequences, “E-score (dimensionless, -0.5 to 0.5)” has its median near -0.058; the highest 2% begin near 0.35. The list shows a part of the results.

System: MvaT
Assay: PBM 8-mer E-score (mean of HK and ME arrays) (E-score (dimensionless, -0.5 to 0.5)); higher = stronger relative binding preference; most listed sequences are background and not binding sites
Method in brief: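 Full-length P. aeruginosa MvaT carrying an N-terminal glutathione S-transferase tag was tested by protein binding microarray following a previously described protocol. Two universal double-stranded 60-mer arrays, ME and HK, were used, each with a constant 25-mer primer region and a variable 35-mer region covering all 8-mers. The rank-based E-score is the mean of the two arrays, parsed with a custom script. Its range runs from -0.5 to 0.5 for each 8-mer.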

**Q.** Which “PBM 8-mer E-score” value does the source give for AGTGAATA here?
**A.** The value was 0.113.

**Q.** With GGCGCAAC as the sequence, how does the “PBM 8-mer E-score” value read?
**A.** The value was -0.0502.

**Q.** For AGTAATAC, which “PBM 8-mer E-score” value is on record?
**A.** The value was 0.297.

**Q.** How did the “PBM 8-mer E-score” value turn out when CGGCTAAA was run?
**A.** The value was -0.0268.

**Q.** For GACGCGTC, which “PBM 8-mer E-score” value is on record?
**A.** Its value is -0.0993.

**Q.** GTTCCGTA was tested. Which “PBM 8-mer E-score” value did it give?
**A.** Its value is -0.0296.

**Q.** How did the “PBM 8-mer E-score” value turn out when ACTAGAAG was run?
**A.** The value was 0.0485.

**Q.** For AGGATGCG, which “PBM 8-mer E-score” value is on record?
**A.** Its value is -0.183.

**Q.** Which “PBM 8-mer E-score” value does the source give for AAAAAGAT here?
**A.** Its value is 0.231.

**Q.** For CTCCCCGC, which “PBM 8-mer E-score” value is on record?
**A.** Its value is -0.157.

**Q.** With AGGAAGTA as the sequence, how does the “PBM 8-mer E-score” value read?
**A.** The value was 0.162.

**Q.** How did the “PBM 8-mer E-score” value turn out when AACATGCG was run?
**A.** The value was 0.00306.

**Q.** With CCTAACGA as the sequence, how does the “PBM 8-mer E-score” value read?
**A.** The value was -0.147.

**Q.** How did the “PBM 8-mer E-score” value turn out when AAAAGGGA was run?
**A.** Its value is -0.0403.

**Q.** For AAACACTA, which “PBM 8-mer E-score” value is on record?
**A.** The value was 0.33.

**Q.** GTATACCA was tested. Which “PBM 8-mer E-score” value did it give?
**A.** Its value is 0.195.

**Q.** GGCCCCGA was tested. Which “PBM 8-mer E-score” value did it give?
**A.** Its value is -0.268.

**Q.** How did the “PBM 8-mer E-score” value turn out when GAACCAGA was run?
**A.** Its value is -0.143.

**Q.** For AGATAGAG, which “PBM 8-mer E-score” value is on record?
**A.** The value was 0.0268.

**Q.** For CAAGTTCC, which “PBM 8-mer E-score” value is on record?
**A.** Its value is 0.0897.

**Q.** How did the “PBM 8-mer E-score” value turn out when AAGTAGCG was run?
**A.** Its value is 0.0717.

**Q.** For CGGTCAAG, which “PBM 8-mer E-score” value is on record?
**A.** Its value is -0.217.

**Q.** ACGCATCA was tested. Which “PBM 8-mer E-score” value did it give?
**A.** Its value is -0.0743.

**Q.** Which “PBM 8-mer E-score” value does the source give for CAGTTGAA here?
**A.** The value was 0.103.

**Q.** Which “PBM 8-mer E-score” value does the source give for ACTGTAAC here?
**A.** The value was 0.246.

**Q.** With CGGGTGCC as the sequence, how does the “PBM 8-mer E-score” value read?
**A.** Its value is -0.223.

**Q.** How did the “PBM 8-mer E-score” value turn out when AGTTTTAC was run?
**A.** Its value is 0.221.

**Q.** For CTTGACCA, which “PBM 8-mer E-score” value is on record?
**A.** Its value is 0.0132.

**Q.** For CGCGTTGC, which “PBM 8-mer E-score” value is on record?
**A.** The value was -0.203.

**Q.** How did the “PBM 8-mer E-score” value turn out when ATGGCACC was run?
**A.** Its value is -0.128.

**Q.** How did the “PBM 8-mer E-score” value turn out when ACGTGGTG was run?
**A.** The value was -0.245.

**Q.** With TGTTTGAA as the sequence, how does the “PBM 8-mer E-score” value read?
**A.** Its value is 0.217.

**Q.** For AGAATTCG, which “PBM 8-mer E-score” value is on record?
**A.** Its value is 0.0867.

**Q.** Which “PBM 8-mer E-score” value does the source give for GGGGGTCA here?
**A.** The value was -0.298.

**Q.** With ATCCACGC as the sequence, how does the “PBM 8-mer E-score” value read?
**A.** The value was -0.0396.

**Q.** How did the “PBM 8-mer E-score” value turn out when GTAATGAC was run?
**A.** Its value is -0.00906.

**Q.** GTTTTACA was tested. Which “PBM 8-mer E-score” value did it give?
**A.** The value was 0.177.

**Q.** With CTCTATTC as the sequence, how does the “PBM 8-mer E-score” value read?
**A.** The value was -0.0516.

**Q.** How did the “PBM 8-mer E-score” value turn out when CTTCTCAA was run?
**A.** Its value is -0.0991.

**Q.** How did the “PBM 8-mer E-score” value turn out when CACTGCGA was run?
**A.** The value was 0.035.

**Q.** With ACGTGCTA as the sequence, how does the “PBM 8-mer E-score” value read?
**A.** The value was 0.0354.

**Q.** Which “PBM 8-mer E-score” value does the source give for CAATTCGC here?
**A.** Its value is 0.0872.

**Q.** Which “PBM 8-mer E-score” value does the source give for CTGGGTTC here?
**A.** The value was -0.126.

**Q.** Which “PBM 8-mer E-score” value does the source give for AGGAGACA here?
**A.** Its value is -0.0249.

**Q.** GTAAGAGA was tested. Which “PBM 8-mer E-score” value did it give?
**A.** Its value is 0.0563.

**Q.** Which “PBM 8-mer E-score” value does the source give for ACCTTTAT here?
**A.** The value was 0.263.

**Q.** For GCGTACCC, which “PBM 8-mer E-score” value is on record?
**A.** Its value is -0.267.

**Q.** How did the “PBM 8-mer E-score” value turn out when GTCTAAGA was run?
**A.** The value was -0.0293.

**Q.** GTAGGTTA was tested. Which “PBM 8-mer E-score” value did it give?
**A.** The value was 0.07.

**Q.** For GCATCGGC, which “PBM 8-mer E-score” value is on record?
**A.** Its value is -0.213.

**Q.** With GGCGGAGA as the sequence, how does the “PBM 8-mer E-score” value read?
**A.** Its value is -0.14.

**Q.** For CGCGTTGA, which “PBM 8-mer E-score” value is on record?
**A.** The value was -0.0847.

**Q.** How did the “PBM 8-mer E-score” value turn out when CCGAAGAC was run?
**A.** The value was -0.0827.

**Q.** Which “PBM 8-mer E-score” value does the source give for GGAAGCCC here?
**A.** Its value is -0.254.

**Q.** Which “PBM 8-mer E-score” value does the source give for CTCTAGCC here?
**A.** The value was -0.267.

**Q.** Which “PBM 8-mer E-score” value does the source give for ATCCAGGC here?
**A.** Its value is -0.224.

**Q.** How did the “PBM 8-mer E-score” value turn out when AACCCGAG was run?
**A.** Its value is -0.115.

**Q.** CTCGCCGC was tested. Which “PBM 8-mer E-score” value did it give?
**A.** The value was -0.241.

**Q.** CGTAGAGA was tested. Which “PBM 8-mer E-score” value did it give?
**A.** The value was -0.0538.

**Q.** How did the “PBM 8-mer E-score” value turn out when ACCGGAGA was run?
**A.** Its value is -0.162.

**Q.** How did the “PBM 8-mer E-score” value turn out when GCCCTCAA was run?
**A.** Its value is -0.0921.

**Q.** Which “PBM 8-mer E-score” value does the source give for CTGTCGTA here?
**A.** Its value is -0.0425.

**Q.** For CGATATAC, which “PBM 8-mer E-score” value is on record?
**A.** The value was 0.219.

**Q.** For GGTCCCTA, which “PBM 8-mer E-score” value is on record?
**A.** The value was -0.264.

**Q.** Which “PBM 8-mer E-score” value does the source give for ATTTGTAA here?
**A.** The value was 0.3.

**Q.** With CAGCCCTA as the sequence, how does the “PBM 8-mer E-score” value read?
**A.** The value was -0.177.

**Q.** For CTAACAGC, which “PBM 8-mer E-score” value is on record?
**A.** The value was -0.0919.

**Q.** TCGTCCCA was tested. Which “PBM 8-mer E-score” value did it give?
**A.** The value was -0.183.

**Q.** With ATAGCCGA as the sequence, how does the “PBM 8-mer E-score” value read?
**A.** Its value is -0.0375.

**Q.** For AACGCAGT, which “PBM 8-mer E-score” value is on record?
**A.** The value was -0.1.

**Q.** How did the “PBM 8-mer E-score” value turn out when GGGATCTA was run?
**A.** Its value is -0.143.

**Q.** Which “PBM 8-mer E-score” value does the source give for GGGTTCAC here?
**A.** The value was -0.111.

**Q.** How did the “PBM 8-mer E-score” value turn out when ATGCTGTA was run?
**A.** Its value is 0.0844.

**Q.** With GAGTATCC as the sequence, how does the “PBM 8-mer E-score” value read?
**A.** Its value is -0.0443.

**Q.** Which “PBM 8-mer E-score” value does the source give for CATAGACC here?
**A.** The value was -0.0627.

**Q.** With GAGTATCA as the sequence, how does the “PBM 8-mer E-score” value read?
**A.** The value was 0.0268.

**Q.** TCGCATCA was tested. Which “PBM 8-mer E-score” value did it give?
**A.** The value was -0.0785.

**Q.** For CAGTAGTA, which “PBM 8-mer E-score” value is on record?
**A.** The value was 0.13.

**Q.** How did the “PBM 8-mer E-score” value turn out when ATGATCAG was run?
**A.** Its value is -0.0537.

**Q.** For AAGTGCTC, which “PBM 8-mer E-score” value is on record?
**A.** The value was -0.139.

**Q.** CTCAGTGA was tested. Which “PBM 8-mer E-score” value did it give?
**A.** Its value is -0.00555.

**Q.** How did the “PBM 8-mer E-score” value turn out when GCTGTAGA was run?
**A.** Its value is -0.293.

**Q.** For ACAATTCT, which “PBM 8-mer E-score” value is on record?
**A.** The value was 0.122.

**Q.** For ACCACCAA, which “PBM 8-mer E-score” value is on record?
**A.** The value was 0.0915.

**Q.** Which “PBM 8-mer E-score” value does the source give for ATGTGAAA here?
**A.** The value was 0.195.

**Q.** For CTTGTAAA, which “PBM 8-mer E-score” value is on record?
**A.** Its value is 0.192.
